Molecular target: the molecule itself
Assay: mass photometry

B1: Human recombinant fibroblast activation protein alpha (enzyme)
chain: not shown
modifications: glycosylated (sites not given)
stoichiometry N: 2

— paper PMC11834968 (RSC Chemical Biology, 2025)
